# According to the antibiotic and cytotoxicity screens of Wong et al. (2023):
# The list shows a part of the results.
# Legend:
# HSkMC = human skeletal muscle cells; assay: cytotoxicity call (relative viability < 0.9); conditions: 10 µM
# HepG2 = assay: cytotoxicity call (relative viability < 0.9); conditions: 10 µM
# S. aureus RN4220 = assay: growth inhibition call (relative growth <= 0.2); conditions: 50 µM
SMILES,cytotoxicity call (HSkMC),cytotoxicity call (HepG2),growth inhibition call (S. aureus RN4220)
C[C@@H]1CN([C@H](C)CO)C(=O)c2cc(NS(=O)(=O)c3ccccc3)ccc2O[C@@H](C)CCCCO[C@@H]1CN(C)Cc1ccc(C(F)(F)F)cc1,inactive,inactive,inactive
Cc1noc(C)c1S(=O)(=O)/N=C/N(C)C,inactive,inactive,inactive
Cc1ccc(S(=O)(=O)N(C)C[C@H]2Oc3ccc(NS(=O)(=O)c4cccs4)cc3CC(=O)N([C@@H](C)CO)C[C@@H]2C)cc1,inactive,inactive,inactive
C[C@H](CO)N1C[C@H](C)[C@@H](CN(C)Cc2ccc(-c3ccccc3)cc2)Oc2ccc(NC(=O)c3ccncc3)cc2C1=O,inactive,inactive,inactive
C[C@@H]1CN([C@@H](C)CO)C(=O)Cc2cc(NC(=O)Cn3cnnn3)ccc2O[C@H]1CN(C)Cc1ccncc1,inactive,inactive,inactive
C[C@@H]1CN([C@H](C)CO)C(=O)c2cc(NS(=O)(=O)c3ccc(Cl)cc3)ccc2O[C@H]1CN(C)C(=O)Nc1ccc(C(F)(F)F)cc1,inactive,inactive,inactive
C[C@H](CO)N1C[C@H](C)[C@@H](CN(C)C(=O)Nc2ccc(N3CCCCC3)cc2)OCc2cnnn2CCCC1=O,inactive,inactive,inactive
C[C@@H]1CN([C@H](C)CO)C(=O)c2cc(NC(=O)CCN3CCOCC3)ccc2O[C@@H]1CN(C)S(C)(=O)=O,inactive,inactive,inactive
C[C@@H]1CN([C@@H](C)CO)C(=O)c2cc(NC(=O)Nc3ccc(C(F)(F)F)cc3)ccc2O[C@@H](C)CCCCO[C@H]1CN(C)Cc1ccc(C(F)(F)F)cc1,inactive,active,inactive
